# The full ranking holds about 33,000 sequences; the median of “E-score (-0.5 to 0.5)” is about -0.012, and the highest 2% start at about 0.27. Some of the results follow.
# Biological target: T1, Vhr1 (UniProt P40522)
# T1 sequence: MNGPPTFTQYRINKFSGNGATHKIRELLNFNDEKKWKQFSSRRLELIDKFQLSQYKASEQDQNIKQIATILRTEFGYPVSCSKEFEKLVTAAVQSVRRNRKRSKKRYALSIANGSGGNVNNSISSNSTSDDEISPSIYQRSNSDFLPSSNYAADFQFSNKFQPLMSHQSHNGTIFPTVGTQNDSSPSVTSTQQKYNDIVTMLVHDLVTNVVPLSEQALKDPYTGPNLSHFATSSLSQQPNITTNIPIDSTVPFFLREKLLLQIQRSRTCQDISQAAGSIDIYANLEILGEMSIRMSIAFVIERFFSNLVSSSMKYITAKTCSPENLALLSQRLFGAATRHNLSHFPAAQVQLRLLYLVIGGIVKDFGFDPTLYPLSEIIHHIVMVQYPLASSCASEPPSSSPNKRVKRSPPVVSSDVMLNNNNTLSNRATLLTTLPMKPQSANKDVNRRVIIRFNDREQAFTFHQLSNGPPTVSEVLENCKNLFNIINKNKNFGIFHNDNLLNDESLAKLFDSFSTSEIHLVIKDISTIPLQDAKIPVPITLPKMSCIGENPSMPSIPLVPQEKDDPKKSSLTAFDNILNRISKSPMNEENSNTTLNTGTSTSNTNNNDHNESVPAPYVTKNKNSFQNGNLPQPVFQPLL
# Test: PBM E-score (8-mer binding enrichment) (E-score (-0.5 to 0.5)); higher = stronger / more preferred TF binding; most listed sequences are background and not binding sites
# Conditions: protein concentration: 200 nM; construct: GST-full length
# Experimental: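 Universal 'all 10-mer' protein binding microarrays (Agilent AMADID 015681) probed with GST-tagged S. cerevisiae TFs (full-length or DBD) made by in vitro transcription/translation (PURExpress), about 100-200 nM. Bound TF was detected with fluorescent anti-GST. Each ungapped 8-mer (which stands for itself and its reverse complement) is scored by the PBM enrichment score (E-score), a modified Wilcoxon-Mann-Whitney statistic from -0.5 to +0.5, computed with the Universal PBM Analysis Suite. Scale: above 0.35 generally sequence-specific binding.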
row,Sequence,PBM E-score
1,CCATCTGA,0.175
2,TTCAAAAA,-0.198
3,TAAGCTTA,0.117
4,CACACATC,0.155
5,GTCGGACA,-0.16
6,TGGAGACA,0.21
7,CAATGTTA,-0.117
8,CGGGACAC,0.167
9,AAAACTGG,-0.054
10,ACCTCGCC,-0.0575
11,ACAGCACT,-0.0389
12,TATACATA,0.167
13,CGAAGCAC,-0.0649
14,GGCGACCA,-0.193
15,GGCTGTTA,-0.0965
16,GTAGAACA,-0.175
17,AACTAATT,-0.0436
18,CGTCGTTA,-0.0921
19,GCTTTCTA,-0.0897
20,CACACAAG,0.177
21,CTAAGACC,0.0909
22,CTCCATAA,-0.0784
23,AAGTGCCG,-0.208
24,GCTGGACA,-0.0617
25,AAAAAACC,-0.173

row,Sequence,PBM E-score
1,AGAGCCAA,0.071
2,TGGGACCA,-0.0292
3,GAGTAAAA,-0.102
4,ACTAAATG,0.0404
5,CAGGAAGC,0.121
6,GCGTGCAA,-0.0681
7,AGTGCCAC,-0.247
8,AAAACCGG,0.136
9,AAGCTGGG,-0.0313
10,AGATGTCC,-0.173
11,TAGCCTAA,-0.142
12,GTAGGGAC,-0.077
13,ACTGGTGC,0.158
14,GAGGCGGC,0.0803
15,CATATGAG,0.219
16,GGCAGGAA,-0.186
17,GTACGGTA,0.00151
18,ACCAAGAC,0.0377
19,ATCCGAAA,-0.11
20,CTCTTCGA,-0.127
21,CCGCGAGG,0.249
22,AGTCTCCC,0.202
23,AGCGGACG,-0.0316
24,CGCTGAAA,-0.108
25,AGCTATAT,0.107

row,Sequence,PBM E-score
1,TCAATTCA,-0.0518
2,GCCTCCTA,-0.209
3,GGGCGAGA,-0.052
4,CCCTTCCC,0.161
5,GAGCGCCC,0.126
6,CACAATTC,0.0896
7,TACATAAA,-0.0692
8,GAGAATGC,0.0664
9,CCCCAAGC,0.239
10,CGGCCGAG,0.11
11,ACAACGCC,-0.0778
12,TCAATAGA,-0.025
13,CCTAGGGA,0.0204
14,ATGGCCTC,0.00916
15,AACCGAGC,-0.00629
16,AGCGAGTC,0.275
17,AGTGCAAG,-0.0995
18,GCCCACGA,-0.173
19,GTGCGATA,0.0799
20,ACTATGTA,0.207
21,ATGACTTG,0.268
22,ACTCCAAT,0.0976
23,GCGTGAAA,-0.214
24,TCCTCCAA,-0.019
25,CTGAACTC,-0.0868

row,Sequence,PBM E-score
1,ATGACTGC,0.41
2,GAGTGTGC,0.0366
3,AATACCCG,0.107
4,CTGGCAAA,-0.227
5,ATCTTCGA,-0.0322
6,TGGTGACA,0.0991
7,CCAGACAG,-0.116
8,ATCGCGAT,0.204
9,ATCTCTGG,-0.0853
10,CGCTGGTC,-0.0561
11,AGGTGTAA,-0.0503
12,AAGTACCC,-0.206
13,CATATATC,0.142
14,ATCTGGCG,0.123
15,ACTCGTAA,0.0568
16,CCTGTTAG,-0.102
17,GAGGCGGA,-0.168
18,CCAACAGC,0.0131
19,CGTGATTC,0.326
20,ACGGGGGC,-0.212
21,TCGCCACA,0.202
22,CATAGTAA,0.212
23,CCTTTGAA,-0.1
24,GGGGCCGA,-0.151
25,CTGTGGCA,-0.099

row,Sequence,PBM E-score
1,TAGATCCA,-0.0595
2,AAGGTACT,-0.0263
3,ACTATCAC,0.0289
4,CAAAGTGC,-0.0139
5,GATCCTAC,0.113
6,ACTCCCCT,0.153
7,CGCCACAA,0.0246
8,ATCTAACA,-0.0319
9,ATGGAGCG,0.119
10,CGGCGGTA,0.109
11,GGGAAGGA,-0.14
12,GTTATAGA,-0.173
13,AAAAAATG,-0.189
14,CCAACGGC,-0.287
15,AACTCACG,0.109
16,TAGTGAGA,0.118
17,CCTATACG,-0.055
18,TAGTTCAA,-0.0142
19,AGTGGTCG,0.2
20,GGAGTCCC,0.227
21,GACCTTAC,-0.112
22,CGTGAATA,0.119
23,CGGATTAG,0.0373
24,TCCGCAAA,-0.105
25,GCGGCTGA,0.0414

row,Sequence,PBM E-score
1,AACGTCCA,-0.223
2,AAGATCTA,-0.199
3,CCCTATAC,0.0462
4,CCCGGTGC,-0.0384
5,ATTGGCGG,-0.0369
6,ACCCCAAG,-0.0964
7,ATCGGACA,-0.118
8,CGGAAGCA,-0.0998
9,AGCCCAAT,-0.133
10,CCTTTGTA,-0.273
11,CCACTGGG,-0.121
12,AGGCAATC,-0.102
13,ACTTTTCA,-0.269
14,GTCGGCAC,-0.115
15,ACGAATGC,-0.0487
16,AAGTACGT,-0.077
17,CGGGATCA,0.0945
18,ATCGCTTG,0.071
19,TATGGAAA,-0.00154
20,CGGACATC,-0.138
21,CGCCGAAA,0.123
22,CGCGGACC,0.102
23,AGTGGATC,0.172
24,ATATGGCG,0.0173
25,GGTCAAGA,0.0067

row,Sequence,PBM E-score
1,CAGGGTAA,0.163
2,CCTACTAG,0.0535
3,CAGGATCA,0.0935
4,AGCACACG,-0.0162
5,AAAATAAC,-0.127
6,CACGTGAA,-0.047
7,GGCTACTA,0.179
8,CTCGATGC,-0.00057
9,GCCGAGAC,-0.0553
10,CACTCCGC,0.144
11,GCACTCCA,-0.248
12,ACTTTCAG,-0.166
13,CATATCTC,0.0164
14,ACGATCAT,0.089
15,GGTACGAC,0.00399
16,CATCCCAA,0.0716
17,CAGACAGA,-0.0253
18,GCTGGGGA,-0.154
19,CTCGCACA,0.0558
20,CTGACAGC,0.0155
21,GCATTACA,0.0758
22,CAAAAACC,-0.115
23,AACTAAGT,-0.025
24,CCCTGCAG,0.028
25,CCTTCACG,-0.159

row,Sequence,PBM E-score
1,GGCCAAGA,-0.103
2,CGTGAGAG,-0.321
3,CCAAAGTC,0.0864
4,ATGTGTCC,0.157
5,GGCTGGAA,-0.035
6,CGTTTTGC,-0.099
7,ACCTACAT,0.0188
8,CGCAAGAG,0.0352
9,GGGGCTAC,-0.0091
10,ACGGTACT,0.00055
11,GGATAGAC,-0.179
12,AACATGAT,0.229
13,CACGAACC,-0.0392
14,AAGCGATC,-0.0527
15,TAATCCTA,-0.0628
16,AAACACAC,0.192
17,AAAACCCG,-0.17
18,CTATTCAC,0.0789
19,AAGAGTGT,-0.167
20,CAAGAAGA,0.0592
21,GGGTTAGA,-0.04
22,CATCAACG,0.131
23,ACATCACT,0.144
24,GATAGGAC,0.0574
25,TGGTACCA,0.0645

row,Sequence,PBM E-score
1,ACGACATG,0.107
2,CAGCAATC,0.0295
3,CTTAGAAA,-0.324
4,CTGCTCGC,-0.0394
5,CTGGATAC,0.0905
6,CGCGCGGA,0.13
7,CTCGCCTC,-0.165
8,AACCTCGG,-0.0382
9,GGTTAGAC,-0.00016
10,GGGCGAAA,-0.052
11,ATTCTGCC,0.022
12,CAGAGACC,0.0328
13,AATAGAAG,-0.116
14,TAGCAGGA,-0.0249
15,AAGTTCTG,-0.168
16,ACGCGTTA,-0.156
17,ACGAGTTG,0.0198
18,GTTTATCA,0.167
19,AGAGACTG,0.0515

# Source: the supplement of paper PMC3334620
